Results from PMC4336329 (PLoS ONE, 2015).
The whole screen tested about 310,000 compounds, of which about 2,200 (0.71%) showed an effect of 50% or more. The effect is printed as a negative number. The list shows a part of the results.

biological target: human ether-à-go-go-related gene (hERG) potassium channel (human, UniProt Q12809); test: primary screen, population patch clamp on CHO cells stably expressing hERG
Sequence (Q12809 whole entry, looked up): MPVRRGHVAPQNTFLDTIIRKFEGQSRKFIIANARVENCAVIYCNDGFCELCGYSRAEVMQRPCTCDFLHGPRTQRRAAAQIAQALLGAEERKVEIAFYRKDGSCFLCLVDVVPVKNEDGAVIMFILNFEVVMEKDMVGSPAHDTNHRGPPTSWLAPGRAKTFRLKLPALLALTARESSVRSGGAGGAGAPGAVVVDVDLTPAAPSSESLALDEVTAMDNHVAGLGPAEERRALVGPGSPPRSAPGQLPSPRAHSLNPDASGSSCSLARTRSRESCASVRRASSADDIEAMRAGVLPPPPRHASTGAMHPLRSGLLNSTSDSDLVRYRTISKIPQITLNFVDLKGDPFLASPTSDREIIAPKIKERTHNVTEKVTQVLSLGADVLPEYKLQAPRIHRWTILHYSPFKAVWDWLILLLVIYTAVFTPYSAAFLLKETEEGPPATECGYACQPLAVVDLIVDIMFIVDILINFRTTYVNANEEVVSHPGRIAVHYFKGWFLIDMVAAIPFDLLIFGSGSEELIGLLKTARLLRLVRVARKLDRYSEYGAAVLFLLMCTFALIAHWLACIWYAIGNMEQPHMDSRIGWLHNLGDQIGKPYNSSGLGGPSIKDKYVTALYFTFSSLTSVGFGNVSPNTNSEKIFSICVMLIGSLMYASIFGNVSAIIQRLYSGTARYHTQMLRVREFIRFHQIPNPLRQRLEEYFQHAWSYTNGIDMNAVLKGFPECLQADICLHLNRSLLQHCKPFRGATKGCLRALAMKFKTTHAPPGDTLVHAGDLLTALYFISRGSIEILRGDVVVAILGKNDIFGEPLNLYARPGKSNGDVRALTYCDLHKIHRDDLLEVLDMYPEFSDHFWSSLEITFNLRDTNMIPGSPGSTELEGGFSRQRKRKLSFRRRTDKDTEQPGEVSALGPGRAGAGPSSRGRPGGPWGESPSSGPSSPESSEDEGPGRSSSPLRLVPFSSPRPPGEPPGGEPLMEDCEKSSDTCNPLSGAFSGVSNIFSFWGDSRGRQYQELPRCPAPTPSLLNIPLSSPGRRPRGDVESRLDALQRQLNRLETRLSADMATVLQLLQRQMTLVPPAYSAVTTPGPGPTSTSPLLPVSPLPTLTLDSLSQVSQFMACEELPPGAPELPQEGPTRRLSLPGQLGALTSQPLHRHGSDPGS

SMILES | hERG current change (%, negative = inhibition) at 1uM [%]
NS(=O)(=O)c1ccc(CNC(=O)c2cc(-c3cccs3)nc3ccccc23)cc1 | 2.81
CN1CCN(C(=O)c2ccc(-c3ccccc3)cc2)CC1 | 4.93
COc1c(Cl)cccc1-c1cn2ccccc2n1 | 13.7
COc1ccc(Cl)cc1C(=O)NCC(C)C | 10.2
COc1ccc(-n2nc3c(N4CCC(C(=O)NCCc5ccccc5C)CC4)nnc(C)c3c2C)cc1 | 24.2
CC(=O)NC(Cc1ccc(F)cc1)C(=O)N1CCN(C(=O)NCc2ccccc2)CC1 (stereo not drawn) | 1.78
CCN(CC)C(=O)Cn1cc(S(=O)(=O)Cc2cccc([N+](=O)[O-])c2)c2ccccc21 | -22.1
CN(C)c1nc2ccccc2n(C)c1=O | 14.2
COC(=O)c1ccc(COc2ccc(C=O)cc2OC)o1 | 13.8
CCCOC(=O)/C(C(N)=NCc1ccccc1)=C(\O)OCCC | 8.96
CC(C)(/C=N/O)/[N+]([O-])=C/c1ccccc1 | 17.9
CC1=CC(=NOC(=O)/C=C/c2ccccc2)C=C(C)C1=O | 14.7
COC(=O)Cn1ccc(-c2ccc(Cl)cc2)c(C#N)c1=O | 4.67
COc1ccc(-c2sc(Nc3ccccc3)n[n+]2-c2ccc(F)cc2)cc1Br.[Cl-] | 6.75
Cc1ccc(Cl)cc1N1CCN(CCN)CC1 | 3.96
COC(=O)c1ccccc1N/C=C1\CCc2c(c(C)nn2-c2ccccn2)C1=O | 11.1
O=C(O)CCCC(=O)Nc1ccn(-c2ccccc2)n1 | -2.88
O=C(NCC1CC1)c1ccc(Nc2nc3ccc(Br)cc3[nH]2)cc1 | 6.24
CC(C)CN(C(=O)COC(=O)CCSc1ccc(F)cc1)c1c(N)n(Cc2ccccc2)c(=O)[nH]c1=O | 3.01

SMILES | hERG current change (%, negative = inhibition) at 1uM [%]
CN(C)c1nc(N(C)C)nc(N2CCCCC2)n1 | 11.4
CCOC(=O)c1oc2ccccc2c1NC(=O)c1ccco1 | 4.43
O=C(CSc1nnc(CNc2cccc(Cl)c2)o1)OC1CCCCC1 | 0.318
CCCCSC(=S)N(C)C1CCS(=O)(=O)C1 (stereo not drawn) | 8.03
COc1ccc(S(=O)(=O)N2CCC(C(=O)Nc3ccc(S(=O)(=O)N4CCCC4)cc3)CC2)cc1OC | 17.9
COc1cc(C(=O)NCC2CCCO2)ccc1OCc1ccccc1 (stereo not drawn) | 9.88
CCOC(=O)c1c(NC(=O)C2CCCN(S(=O)(=O)c3ccccc3)C2)sc2c1CCCC2 (stereo not drawn) | 6.71
CCOc1ccc(N(C(C)C(=O)Nc2ccc(OC)cc2)S(C)(=O)=O)cc1 (stereo not drawn) | 5.59
CCOc1ccc(CCNC(=O)COC(=O)c2ccc(Cl)nc2)cc1OCC | 16.7
O=C(NC1=NCCS1)c1sc2cc(Cl)cc(Cl)c2c1Cl | 14.9
O=C1CCC(C(=O)N2CCSCC2)CN1CCc1cccc(F)c1 (stereo not drawn) | 23.7
Cc1cc2c(cc1C)N(C(=O)CSC1=NCCS1)C(C)(C)c1ssc(=S)c1-2 | 11.4
Cc1ccc(Cl)cc1NC(=O)NCCN1CCCCC1 | 4.14
COc1ccc(C2SCC(=O)N2C)cc1 (stereo not drawn) | 8.75
Cc1ccc(NC(=O)N2CCc3ccccc3C2)c(C)c1 | 11.7
Cc1onc(-c2ccccc2)c1C(=O)Nc1cccc2nsnc12 | 7.88
Cc1nccn1CCCNC(=O)CC1C(=O)NCCN1Cc1ccc(F)cc1Cl (stereo not drawn) | 17.2
COc1ccccc1CCc1nnc(CCC(=O)NC(C)Cc2cccs2)o1 (stereo not drawn) | -6.86
Cc1ccc(C(=O)NCCCNC(=O)c2ccccc2C)cn1 | 8.13

SMILES | hERG current change (%, negative = inhibition) at 1uM [%]
Cc1ncsc1C(=O)N1N=C2/C(=C/c3ccccc3)CCCC2C1c1ccccc1 (stereo not drawn) | 17.4
COC(=O)C1=C(c2ccc(OC)c(OC)c2)C[C@@H]2CC[C@H]1N2C(=O)NCCOc1ccc(OC)cc1 | 8.75
COc1cccc(C2Nc3cc(Cl)c(S(N)(=O)=O)cc3S(=O)(=O)N2)c1 (stereo not drawn) | 5.48
CCN(CCCC(=O)c1ccc(F)cc1)CCc1ccccc1.Cl | -86.5
COC(=O)c1ccc(COc2ccccc2/C=C(\C#N)C(=O)Nc2ccc(C)cc2C)cc1 | -10
S=c1[nH]nc(-c2cccs2)n1/N=C/c1cn(-c2ccccc2)nc1-c1cccs1 | 17.4
CCC(=O)Nc1nc2ccccc2n1CCN(C)C | 10.1
CCc1ccc(N(CC(=O)Nc2sc3c(c2C(=O)OC)CCCC3)S(C)(=O)=O)cc1 | 11.1
Cc1cc(NC2C3CC4CC(C3)CC2C4)n2ncnc2n1 (stereo not drawn) | -24.2
CCn1c(SCC(=O)NCCc2ccccc2)nnc1-c1cccs1 | 5.16
COc1cc(/C=N/NC(=O)C2COc3ccccc3O2)ccc1O (stereo not drawn) | 2.91
O=C(OCn1nnc2ccccc2c1=O)C12CC3CC(CC(O)(C3)C1)C2 | 12.3
CN(C)S(=O)(=O)c1ccc(N2CCCC2)c(C(=O)Nc2ccccc2OC(F)F)c1 | 5.43
O=C(NC1CCCCC1NC(=O)c1cccs1)c1cccs1 (stereo not drawn) | 6.7
CCc1nn2c(N3CCOCC3)cc(C)nc2c1-c1ccc(F)cc1 | 9.19
O=C(Nc1nnc(-c2ccco2)o1)c1ccc([N+](=O)[O-])s1 | 9.06
COc1cccc(OC)c1C(=O)Nn1c(C2CCC2)nc2ccccc2c1=O | 10.6
CN(C)c1ccc(NC(=O)c2cn(-c3ccccc3)nc2-c2cccs2)cc1 | 10.8
Cc1ccccc1CN1CCN(S(=O)(=O)c2ccc(F)cc2)CC1 | 9.67
